The whole screen tested about 420,000 compounds, of which about 64,000 (15%) were called active. The shares of active, inactive and inconclusive entries below differ from those in the screen. Calls come from the whole dose curve; as a rule, active = well fitted inhibition curve with a large enough effect; inconclusive = small, poorly fitted or top-dose-only effect; inactive = flat fitted curve, though single readings scatter. Potencies of inconclusive entries are left out as doubtful fits.
assay: qHTS for Inhibitors of human tyrosyl-DNA phosphodiesterase 1 (TDP1): qHTS in cells in absence of CPT; details: DT40 Tdp1-/- hTDP1 cells, no CPT, ATP luminescence, 48 h; activity change, negative = growth inhibition: at 46.2 µM (top of the series) unless noted; note: nearly all actives have a fitted effect of over 55% in size
Procedure, shortened: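 Growth of hTDP1-complemented DT40 Tdp1-knockout cells is measured by ATP luminescence after at least 48 hr compound exposure at 37 °C, with DMSO substituting for the 20 nM CPT used in the parallel screen.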
% is set by controls: 0 for no effect and ±100 for the full control effect; potency is the fitted concentration of half-maximal effect; tags give direction and shape of the fitted curve.

Row | Structure (SMILES) | Potency | activity change, negative = growth inhibition
1 | CCC(C)c1ccc(NC(=O)COC(=O)C2CCCC2)cc1 (stereo not given) | inactive | 
2 | CCOC(=O)c1c(-c2ccccc2)oc2ccc(OCC(O)CN(C)C)cc12 (stereo not given) | active: 23.1 µM | 
3 | O=C(CNC(=O)c1cc(-c2ccccc2)nn1-c1ccccc1)Nc1ccccc1Br | inconclusive [inhibitor, single point] | 
4 | OC(c1ccco1)c1nc(-c2ccc(F)c(Cl)c2)cs1 (stereo not given) | inactive | 
5 | CN1CCN(c2ccc(CNC(=O)C3(C)Cc4c(-c5ccc(C(N)=O)cc5)ccnc4O3)cc2)CC1 (stereo not given) | inactive | 
6 | CCc1noc(C)c1C(=O)N1CCCC(N2CCN(c3ccc(F)cc3)CC2)C1 (stereo not given) | inactive | 
7 | CCc1nn2c(-c3ccccc3OC)ccnc2c1-c1ccc(F)cc1 | inconclusive [inhibitor, single point] | 
8 | S=c1[nH]c2ccccc2n1Cc1ccccc1 | inconclusive [inhibitor, partial curve] | 
9 | CCN(CC)CCN(C)c1ccc(/C=C/c2ccnc3ccccc23)cc1 | inconclusive [inhibitor, partial curve, poor fit] | 
10 | CCC(NC(=O)c1ccccc1NC(=O)c1ccco1)C(=O)NNC(=O)c1ccc(OC)cc1 (stereo not given) | inactive | 
11 | COc1cc(CCC(=O)N2CCN(c3cccc(C)c3C)CC2)cc(OC)c1OC | active: 10.3 µM | 
12 | CC(C)=CCC12Oc3cc(O)ccc3C1(O)Oc1cc3c(c(O)c1C2=O)C=CC(C)(C)O3 (stereo not given) | inconclusive [inhibitor, single point] | 
13 | COc1ccc(C2CC(c3ccccc3)=NN2C(=O)COC(=O)C2CC2)cc1 (stereo not given) |  | inconclusive: -30.6% [inhibitor]
14 | CC1CCc2c(sc3ncn(CC(=O)N=Nc4c(O)[nH]c5ccccc45)c(=O)c23)C1 (stereo not given) | inactive | 
15 | CCOC(=O)c1cccc(NC(=O)CC(c2cc(OC)c(OC)c(OC)c2)N2Cc3ccccc3C2=O)c1 (stereo not given) | inconclusive [inhibitor, single point] | 
16 | COc1ccc(C(=O)N(Cc2nc(-c3ccc(C)cc3)no2)C(C)C)cc1OC | inconclusive [inhibitor, full curve] | 
17 | COc1ccc(CCNc2nc(-c3ccc(C)cc3)cc(C(F)F)n2)cc1OC | inactive | 
18 | CCOC(=O)C1CCN(c2c(C(=O)c3ccc(OCC)cc3)cnc3ccc(OC)cc23)CC1 | active: 20.6 µM | 
19 | COc1ccc(OCC(=O)Nc2ccc(NC(=O)c3ccccc3Cl)c(OC)c2)cc1 | inactive | 
20 | O=C(Nc1cc(Cl)ccc1O)C1CC(c2ccccc2O)=NO1 (stereo not given) | inconclusive [inhibitor, single point] | 
21 | CCOC(=O)C1=C(C)OC(N)=C(C#N)C1c1cc2c(cc1[N+](=O)[O-])OCO2 (stereo not given) | inactive | 
22 | COC(=O)c1ccc(NC(=O)CCc2c(C)nc3c(c(C)nn3-c3ccc(C)cc3)c2C)cc1 | active: 6.51 µM | 
23 | CCCCn1c(=O)[nH]c(=O)c2c1nc(-c1ccc(OC)c(Br)c1)n2CC(C)C | inconclusive [inhibitor, single point] | 

Row | Structure (SMILES) | Potency | activity change, negative = growth inhibition
24 | NC(=O)COC(=O)CNC(=O)c1sc2ccccc2c1Cl | inactive | 
25 | Cc1c(Cl)cccc1NC(=O)CC(c1cccs1)N1Cc2ccccc2C1=O (stereo not given) | inconclusive [inhibitor, single point] | 
26 | C=Cc1ccc(Cn2c(=O)n(C)c(=O)c3sccc32)cc1 | inconclusive [inhibitor, single point] | 
27 | CC(NC(=O)CSc1n[nH]c(-c2ccccc2Cl)n1)c1nc2ccccc2n1C (stereo not given) | inactive | 
28 | Cc1c(C(=O)N(CCO)C(C)C)cnn1-c1ncc2c(n1)-c1ccccc1CCC2 | inconclusive [inhibitor, single point] | 
29 | CCOc1ccc(Br)cc1S(=O)(=O)Nc1ccc(NC(=O)c2ccccc2F)cc1 | active: 16.4 µM | 
30 | CCOC(=O)c1[nH]c2ccc(OC)cc2c1NC(=S)N1CCN(c2cccc(C)c2C)CC1 | inconclusive [inhibitor, single point] | 
31 | Cc1nc2c(C(=O)NCc3ccccc3Cl)c[nH]n2c(=O)c1Cc1cccc(Cl)c1 | inconclusive [inhibitor, partial curve] | 
32 | COC(=O)C1=C(C(=O)OC)[C@@H]2N(C)c3ccc(OC)cc3[C@@]23C[C@@H](C(=O)OC)N(S(=O)(=O)c2ccc(OC)cc2)C3=N1 | inactive | 
33 | Cc1cccc(-n2c(SCCC(=O)O)nnc2-c2cccs2)c1C | inconclusive [inhibitor, single point] | 
34 | COc1cccc(CCN2C(=O)CCC3=C2CCC3=O)c1 | inactive | 
35 | Cc1sc2nc(SCC(=O)NCc3ccco3)n(CCc3ccccc3)c(=O)c2c1C | inconclusive [inhibitor, partial curve] | 
36 | CCCCn1cnc2c(SCc3ccccc3)nc(N)nc21 | inconclusive [inhibitor, single point] | 
37 | COc1c(C)cc(S(=O)(=O)Nc2cccc(-c3ccc(N4CCOCC4)nn3)c2)c(C)c1C | inconclusive [inhibitor, single point] | 
38 | CCOC(=O)N1CCN(C(=O)CSc2nnc(-c3cccc(OC)c3)o2)CC1 | active: 23.1 µM | 
39 | C=C1CC[C@@H]2[C@](C)(CO)[C@H](O)CC[C@@]2(C)[C@@H]1C/C=C1/C(=O)OC[C@H]1O | active: 2.66 µM | 
40 | Cc1ccc(S(=O)(=O)NCC(=O)OCC(=O)c2ccc(Br)s2)cc1 | inactive | 
41 | CCOC(=O)c1cc(-c2ccccc2C)n(CC2CC(c3ccc(OC)cc3)=NO2)n1 (stereo not given) | inconclusive [inhibitor, single point] | 
42 | COc1ccc(-c2c(C)nn3c(-c4ccccc4)cc(C)nc23)cc1 | inconclusive [inhibitor, single point] | 
43 | COc1ccc(C(C)=O)cc1COC(=O)CCNS(=O)(=O)c1ccc(C)c(C)c1 | inactive | 
44 | CCOc1ccc(NC(=O)CN2CCN(Cc3ccccc3)S2(=O)=O)cc1 | inconclusive [inhibitor, single point] | 
45 | CN(CCOCCOc1ccc(Cl)cc1Br)Cc1ccccc1 | inconclusive [inhibitor, partial curve, poor fit] | 
